Assay results from PubChem BioAssay AID686992 (Broad Institute, 2013).
Out of some 260,000 compounds screened, about 960 (0.37%) were called active. This list was built around the results that the source calls inconclusive (neither active nor inactive); the mix of calls is not that of the screen.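 The calls were made as follows: active = mean E-selectin-positive cell signal at least 10% of the positive control, reached in at least 60% of replicates, without over 20% cell loss; inconclusive = no rule given, readout overlaps actives, possibly toxicity-flagged; inactive = the rest, including those meeting only one limit.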

Each compound was assayed against E-selectin (Homo sapiens) (UniProt P16581) (assay: inducers of endothelial E-selectin expression – imaging, HUVEC, immunofluorescence imaging, single point, primary screen (AID 686992;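 also: signal is the percent of cells scored E-selectin positive by PE staining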)). Conditions: at 7.58 µM, hits give high values, normalized: neutral wells 0, TNF-alpha wells 100.
Chain of UniProt P16581 (P16581 whole entry, looked up): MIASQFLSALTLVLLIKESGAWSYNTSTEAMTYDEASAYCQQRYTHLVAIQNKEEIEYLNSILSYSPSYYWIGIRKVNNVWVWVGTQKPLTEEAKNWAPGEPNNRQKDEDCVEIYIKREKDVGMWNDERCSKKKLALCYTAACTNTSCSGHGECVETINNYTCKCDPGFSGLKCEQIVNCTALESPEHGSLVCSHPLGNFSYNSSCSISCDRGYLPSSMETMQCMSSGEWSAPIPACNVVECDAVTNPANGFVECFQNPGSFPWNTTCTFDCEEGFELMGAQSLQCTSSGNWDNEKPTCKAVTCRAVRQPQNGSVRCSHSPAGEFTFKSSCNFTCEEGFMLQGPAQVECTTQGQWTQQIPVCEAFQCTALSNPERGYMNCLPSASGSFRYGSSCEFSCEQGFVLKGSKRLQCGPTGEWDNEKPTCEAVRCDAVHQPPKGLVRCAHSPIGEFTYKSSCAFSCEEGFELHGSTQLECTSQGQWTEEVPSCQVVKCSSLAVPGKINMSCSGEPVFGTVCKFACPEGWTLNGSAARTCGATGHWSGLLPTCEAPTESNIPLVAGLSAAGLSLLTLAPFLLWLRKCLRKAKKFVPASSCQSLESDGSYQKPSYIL
In short: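 Material: HUVEC primary endothelial cells; Amount: 3,000 cells per well; Dosing: single concentration; Medium: EGM-2 growth medium on 0.1% gelatin-coated wells; Read-out basis: percent E-selectin-positive cells; Signal: immunofluorescence imaging; Control set: TNF-alpha, DMSO.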
With `C[C@@H]1CN([C@@H](C)CO)C(=O)c2cc(NS(=O)(=O)c3ccc(F)cc3)ccc2O[C@H]1CN(C)C(=O)NC1CCCCC1` the activation was inconclusive: 0.445%. In the case of `CCC(CC)NC(=O)Nc1ccc(F)c(Cl)c1`, the activation is reported as active: 27.2%. With `Cc1cc(C)c2sc(NNC(=O)C3COc4ccccc4O3)nc2c1` (stereo not given) the activation was active: 83.3%. `Cc1ccc2nc3c(c(C(=O)OC4CCOC4=O)c2c1)CCCC3` (stereo not given) was tested, and the activation was inactive: -0.137%. `CCCn1c(C)cc(C(=O)COC(=O)CN=C2NS(=O)(=O)c3ccccc32)c1C` was tested, and the activation was inconclusive: 86.7%. In the case of `OCCN1CCN(c2cc(C(F)(F)F)nc3ccccc23)CC1`, the activation is reported as inconclusive: 33.2%. `C[C@H]1CN([C@@H](C)CO)C(=O)Cc2cc(NS(C)(=O)=O)ccc2O[C@@H]1CN(C)Cc1ccc(Oc2ccccc2)cc1` was tested, and the activation was active: 169%. `COc1ccccc1OCCSc1nc2ccccc2n1CC(N)=O` was tested, and the activation was inconclusive: 55.7%. `Cc1ccc(C(=O)NNC(=O)CSc2nnc(CNc3ccc(F)cc3)n2C)cc1` was tested, and the activation was active: 236%. `COC(=O)[C@]12CCCCC=C1N(Cc1ccccc1)C(=O)[C@H](CC(=O)N1CCC(c3ccccc3)CC1)C2` was tested, and the activation was inconclusive: 99%. For `CCCNC(=O)N(C)C[C@H]1Oc2cc(-c3ccccc3)ccc2S(=O)(=O)N([C@@H](C)CO)C[C@H]1C`, the activation was inconclusive: 50.2%. For `CCc1cc(Cn2nc(-c3ccccc3)cc2C(=O)O)on1`, the activation was inactive: 0.0715%. In the case of `COc1ccc(NC(=O)N(C)C[C@@H]2Oc3ccc(NC(=O)c4ccncc4)cc3CC(=O)N([C@@H](C)CO)C[C@@H]2C)cc1`, the activation is reported as active: 81.3%. For `Nc1nc(CCOc2ccc(F)cc2)cs1`, the activation was inconclusive: 73%. In the case of `COCc1cn(CC[C@@H]2CC[C@H](NC(=O)c3ccc(F)cc3)[C@@H](CO)O2)nn1`, the activation is reported as inactive: -0.137%. With `Cc1ccc(CN2CCN(Cc3cn(C)nc3C)CC2CCO)o1` (stereo not given) the activation was inactive: 1.61%. In the case of `O=C(CSc1nc2ccc(F)cc2c(=O)n1-c1ccccc1)Nc1ccc2c(c1)CCC2`, the activation is reported as inconclusive: 34.7%. For `Cc1ccc(S(=O)(=O)Nc2ccc3c(c2)CC(=O)N([C@H](C)CO)C[C@@H](C)[C@@H](CN(C)C(=O)Nc2c(C)noc2C)O3)cc1`, the activation was inactive: -0.19%. With `CCOC(=O)C1CCCN(C(=O)c2cc(S(=O)(=O)N(C)C)ccc2N2CCCC2)C1` (stereo not given) the activation was active: 428%. In the case of `CC(=O)N(C)C[C@@H]1Oc2cc(-c3ccc(F)cc3)ccc2S(=O)(=O)N([C@H](C)CO)C[C@H]1C`, the activation is reported as inconclusive: 48.9%. With `COc1ccc2c3c([nH]c2c1)[C@H](CO)N(C(=O)c1cccc(F)c1)CC31CCN(C(=O)CC2CC2)CC1` the activation was inactive: -0.232%. In the case of `CC1(C)C/C(=N\NC(=S)Nc2ccccc2F)c2cc(O)ccc2O1`, the activation is reported as inconclusive: 30.9%. In the case of `C/C=C/c1ccc([C@H]2[C@H]3CN(C(=O)c4ccccc4)CC(=O)N3[C@H]2CO)cc1`, the activation is reported as inactive: 0.18%. In the case of `COc1ccc(N2C(=O)c3ccc(C(=O)Nc4cc(OC)ccc4OC)cc3C2=O)cc1`, the activation is reported as inconclusive: 28.5%. `C/C(=N\Nc1ncc(Br)cn1)c1cccc([N+](=O)[O-])c1` was tested, and the activation was inactive: -0.121%. For `O=C(Nc1cc(F)ccc1F)N1CC(=O)N2[C@H](CO)[C@@H](c3ccc(/C=C/c4ccccc4)cc3)[C@@H]2C1`, the activation was inactive: 0.834%. In the case of `O=C(CN1C(=O)C(=O)N(C2CCCC2)C1=O)Nc1ccc([N+](=O)[O-])cc1`, the activation is reported as inconclusive: 71.4%. With `CNS(=O)(=O)c1ccc(NC(=O)C2CC(=O)N(c3ccc(Cl)cc3)C2)cc1` (stereo not given) the activation was active: 35.7%. For `CC(=O)NCc1ccc(C(=O)COC(=O)COc2ccccc2)s1`, the activation was inactive: -0.395%. With `CC(=O)NCCNC(=O)C1CCC(CNc2nc(=S)[nH]c3ccccc23)CC1` (stereo not given) the activation was inconclusive: 41.4%. With `CC1=C(C(=O)Nc2ccccc2C)C(c2ccccc2)NC(=O)N1` (stereo not given) the activation was inconclusive: 97.9%. In the case of `N=C1C=CC(=C(c2ccc(N)cc2)c2ccc(N)cc2)C=C1`, the activation is reported as active: 38.9%. `CC(C)NC(=O)Nc1ccc2c(c1)CC(=O)N([C@H](C)CO)C[C@H](C)[C@H](CN(C)Cc1ccc(Oc3ccccc3)cc1)O2` was tested, and the activation was inconclusive: 38.9%. For `O=C(c1cccnc1)N1CCCCN2[C@H](C1)[C@H](c1ccc(C#Cc3cccnc3)cc1)[C@@H]2CO`, the activation was inactive: -0.07%. `Nc1nnc(SCc2nnc(-c3ccccc3)o2)s1` was tested, and the activation was active: 523%. `C[C@@H](NC(=O)C[C@@H]1CC[C@@H](NC(=O)c2cccnc2)[C@H](CO)O1)c1ccccc1` was tested, and the activation was inactive: -0.395%. `C[C@@H]1CN([C@H](C)CO)C(=O)Cc2cc(NC(=O)Nc3ccccc3)ccc2O[C@@H]1CN(C)C` was tested, and the activation was active: 45.5%. In the case of `CC(=O)/C(=N/Nc1ccccc1Cl)Sc1nnc(C(O)c2ccccc2)n1-c1ccccc1` (stereo not given), the activation is reported as inconclusive: 56.9%. For `CC1(C(=O)NS(=O)(=O)C2CC2)CCCN(C(=O)c2cccnc2Oc2ccccc2)C1` (stereo not given), the activation was inconclusive: 35.4%. In the case of `COc1ccc(S(=O)(=O)N(C)C[C@H]2Oc3ccc(NC(=O)Nc4ccc5c(c4)OCO5)cc3CC(=O)N([C@H](C)CO)C[C@@H]2C)cc1`, the activation is reported as active: 429%. In the case of `COc1ccccc1Cc1c(C(C)(C)C)nc2c3ccccc3ccn12`, the activation is reported as inconclusive: 87.3%. With `O=C(O)C1CSC(c2coc3ccccc3c2=O)N1` (stereo not given) the activation was inactive: 2.81%. With `CCc1cc(C(=O)Nc2nc(-c3ccccn3)cs2)sc1C` the activation was active: 29.4%. `C[C@H](CO)N1C[C@H](C)[C@H](CN(C)S(=O)(=O)c2ccccc2F)OCc2ccccc2-c2ccccc2C1=O` was tested, and the activation was inactive: -0.453%. `CC(=O)C1=C(C)N(Cc2ccc(Br)cc2)C(=S)NC1c1cccc(Br)c1` (stereo not given) was tested, and the activation was inconclusive: 27.6%. In the case of `CCOC(=O)C1Sc2ccccc2NC1=O` (stereo not given), the activation is reported as inconclusive: 38.9%. With `Cc1cc2ccccc2n1CCNC(=O)c1ccc(S(=O)(=O)N2CCCCC2)cc1` the activation was active: 93.5%. With `CNC[C@@H]1Oc2ccc(NC(=O)Cn3cnnn3)cc2CC(=O)N([C@H](C)CO)C[C@@H]1C` the activation was inconclusive: 29.7%. `C[C@@H]1CN([C@H](C)CO)C(=O)Cc2cc(NC(=O)CCCN(C)C)ccc2O[C@@H]1CN(C)S(=O)(=O)c1ccccc1` was tested, and the activation was inconclusive: 32.5%. For `CC(=O)Oc1ccc(C2=Cc3ccc(OC(C)=O)cc3OC2C)cc1` (stereo not given), the activation was active: 118%. With `CNC(=O)Oc1ccc2c(c1)[C@]1(C)CCN(C)C1N2C` (stereo not given in full) the activation was inconclusive: 90.4%. For `CCOC(=O)c1c(-c2ccc(OC)cc2)csc1/N=C/C1C(=O)CCCC1=O`, the activation was active: 278%. In the case of `Cc1ccc(-c2csc(C(O)c3ccc(F)cc3)n2)cc1C` (stereo not given), the activation is reported as inconclusive: 53.9%. In the case of `CCN1CCN(c2ccc(S(=O)(=O)N3CCCCC3)cc2NC(=O)CC(C)c2ccccc2)CC1` (stereo not given), the activation is reported as inconclusive: 28.4%. In the case of `COc1ccc(OC)c(NC(=O)Nc2nc(C(N)C(C)C)cs2)c1` (stereo not given), the activation is reported as inactive: 0.08%. With `NC(=O)N/N=C/c1c(F)cccc1F` the activation was inconclusive: 54.9%. With `C[C@H]1CN([C@@H](C)CO)C(=O)c2cccc(NS(=O)(=O)c3ccc(F)cc3)c2O[C@H]1CN(C)S(=O)(=O)c1cccs1` the activation was active: 235%. With `C#CCOCCOCCOCCNc1nc(N2CCN(C(=O)Cn3cc(CCCN=C(N)N)nn3)CC2)nc(N2CCN(C(=O)[C@H]([C@@H](C)CC)n3cc(CCCCN)nn3)CC2)n1` the activation was inconclusive: 47.7%. `CCC(=O)N1[C@H](CN(C(C)C)S(C)(=O)=O)[C@H](c2ccccc2)[C@@H]1CO` was tested, and the activation was inactive: 0.152%. In the case of `CCc1ccc(NC(=O)C(C)OC(=O)c2ccc(N3CCCC3)c([N+](=O)[O-])c2)cc1` (stereo not given), the activation is reported as active: 26.4%. With `COc1ccc2nc(-c3ccccc3)nc(SCC(=O)NCC3CCCO3)c2c1` (stereo not given) the activation was inconclusive: 27.4%. With `C[C@@H]1CN([C@H](C)CO)C(=O)c2cc(NC(=O)Nc3cccc4ccccc34)ccc2O[C@@H]1CN(C)C` the activation was inconclusive: 59.7%. `Cc1cc(Br)ccc1NS(=O)(=O)c1c(C)[nH]c(=O)[nH]c1=O` was tested, and the activation was inconclusive: 34%. `CC=Cc1ccc2n(c1=O)C[C@@H]1[C@@H](CO)[C@H](C(=O)NCC3CC3)N(Cc3ccccc3)[C@H]21` (mixture of isomers) was tested, and the activation was inactive: -0.496%. For `C[C@H]1CN([C@@H](C)CO)C(=O)c2cccc(NC(=O)Nc3ccc(F)cc3)c2O[C@@H]1CN(C)S(=O)(=O)c1cn(C)cn1`, the activation was inactive: 0.107%. With `C[C@@H]1CN([C@H](C)CO)C(=O)c2cc(NC(=O)CCCCCC(=O)Nc3ccccc3N)ccc2O[C@@H]1CN(C)C(=O)Nc1ccc2c(c1)OCO2` the activation was active: 100%. `COc1ccccc1OCC(O)CN1CCN(CC(=O)Nc2c(C)cccc2C)CC1` (stereo not given) was tested, and the activation was inconclusive: 53%. `O=C(N=Nc1c(O)[nH]c2ccccc12)c1ccc2c(c1)OCO2` was tested, and the activation was inconclusive: 38.4%. With `COc1ccccc1NS(=O)(=O)c1c(C)[nH]c(C)c1C(=O)N1CCCC1` the activation was active: 49.8%. In the case of `CCCN1[C@@H]2c3ccc(-c4ccccc4OC)c(=O)n3C[C@@H]2[C@@H](CO)[C@@H]1C(=O)OC`, the activation is reported as inactive: -1.73%. In the case of `Cc1ccc2cc(C)c(N3CCN(c4ccc(F)cc4)CC3)nc2c1`, the activation is reported as inconclusive: 26.8%. For `CCC(=O)N1C[C@@H](C)[C@@H](OC)CN(C)C(=O)c2cc(NC(=O)C3CC3)ccc2OC[C@H]1C`, the activation was inactive: -0.293%. For `Cc1cc(C(=O)N/N=C/c2cccn2C)no1`, the activation was inconclusive: 43.5%. `Cc1noc(C)c1NC(=O)Nc1ccc2c(c1)C(=O)N([C@H](C)CO)C[C@H](C)[C@@H](CN(C)S(=O)(=O)c1ccccc1)OCCCC[C@@H](C)O2` was tested, and the activation was inactive: -0.026%. In the case of `CCOC(=O)Oc1c(OC)cc(C(=O)O[C@@H]2C[C@@H]3CN4CCc5c([nH]c6cc(OC)ccc56)[C@H]4C[C@@H]3[C@H](C(=O)OC)[C@H]2OC)cc1OC`, the activation is reported as inconclusive: 42.1%.
